Values joined by “and” are separate entries in the source; they are usually repeats but may differ in a detail not shown here. Equal entries are not always repeated. The shares of active, inactive and inconclusive entries below differ from those in the screen. Potencies beside an inconclusive call are fits to weak or partial responses and may not hold up. More than one record can exist for a structure, and the calls need not agree. Active and inactive are the calls of the source. The call rests on the fitted dose curve; in most records, active means well fitted curve in the direction sought with a large enough effect in the repeat runs; inconclusive means weak or mixed curves; inactive means no such curve, though single readings can be large; an effect the other way counts as inactive or inconclusive.
Columns and labels:
[1] = Caspase-3/7 induction in HepG2 cells by small molecules, qHTS assay (AID 1346978); further: nearly all actives have a fitted effect of over 15% in size
Procedure, shortened: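 Wild-type HepG2 cells, 2,000/well, settled 5 hr at 37 C and 5% CO2, then compound-treated for 17 hr; caspase-3/7 activity read by luminescent Caspase-Glo 3/7 after 30 min at room temperature.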

[2] = Caspase-3/7 induction in CHO-K1 cells by small molecules, qHTS assay (AID 1346980); further: nearly all actives have a fitted effect of over 15% in size
Procedure, shortened: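 Wild-type CHO-K1 cells exposed to compounds for 17hr at 37 C, 5% CO2. Caspase-3/7 activity then measured by Caspase-Glo 3/7 luminescence after 30min at room temperature.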

[3] = target: Cytochrome P450 2D6 (Homo sapiens) (UniProt P10635); test: Cytochrome P450 Family 2 Subfamily D Member 6 (CYP2D6) small molecule antagonists: luciferase reporter qHTS assay (AID 1671196); further: nearly all actives have a fitted effect of over 50% in size
Procedure, shortened: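 Each well received CYP2D6 with its proluciferin substrate and chemical, sat 10 min, then got NADPH regeneration solution for 1 h at room temperature. Luminescence in RLU served as the activity measure.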

[4] = Caspase-3/7 induction in HepG2 cells by small molecules, qHTS cell viability counter screen (AID 1346981); further: nearly all actives have a fitted effect of over 30% in size
Procedure, shortened: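 Viability determined by CellTiter-Fluor fluorescence in HepG2 wells also used for the luminescent Caspase-Glo 3/7 read. Compounds were present for 16 hr at 37 C, 5% CO2 before reagent addition.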

[5] = target: Nuclear receptor subfamily 1 group I member 2 (Homo sapiens) (UniProt O75469); test: Human pregnane X receptor (PXR) activation by small molecules, qHTS assay (AID 1346985); further: nearly all actives have a fitted effect of over 40% in size
Procedure, shortened: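 DPX-2 cells (HepG2 co-transfected with a PXR response element and a CYP3A4-promoter luciferase construct) were seeded at 2,000 per well, rested 5 hr at 37C, then exposed to DMSO-dissolved compounds for 24 hr. Activation was read as luciferase luminescence.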

[6] = target: Cytochrome P450 2C19 (Homo sapiens) (UniProt P33261); test: Cytochrome P450 Family 2 Subfamily C Member 19 (CYP2C19) small molecule antagonists: luciferase reporter qHTS assay (AID 1671197); further: nearly all actives have a fitted effect of over 65% in size
Procedure, shortened: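 P450-Glo CYP2C19 screening system; proluciferin substrate; DMSO compound stocks; 10 min RT preincubation; NADPH regeneration, 1 h at 37C; luciferin detection reagent, 20 min RT; luminescence as RLU.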

[7] = target: Nuclear receptor subfamily 1 group I member 2 (Homo sapiens) (UniProt O75469); test: CYP3A4 induction through human pregnane X receptor (PXR) by small molecules, qHTS assay (AID 1346984); further: nearly all actives have a fitted effect of over 40% in size
Procedure, shortened: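 Readings come from a luciferase reporter: DPX-2 cells, which are HepG2 cotransfected with PXR and a CYP3A4-promoter construct, were exposed to test compounds for 24 h at 37C before One-Glo detection.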
Potency means the concentration at half of the fitted maximal effect; tags describe the fitted curve by direction and shape.

UniProt P33261, sequence (P33261 whole entry, looked up): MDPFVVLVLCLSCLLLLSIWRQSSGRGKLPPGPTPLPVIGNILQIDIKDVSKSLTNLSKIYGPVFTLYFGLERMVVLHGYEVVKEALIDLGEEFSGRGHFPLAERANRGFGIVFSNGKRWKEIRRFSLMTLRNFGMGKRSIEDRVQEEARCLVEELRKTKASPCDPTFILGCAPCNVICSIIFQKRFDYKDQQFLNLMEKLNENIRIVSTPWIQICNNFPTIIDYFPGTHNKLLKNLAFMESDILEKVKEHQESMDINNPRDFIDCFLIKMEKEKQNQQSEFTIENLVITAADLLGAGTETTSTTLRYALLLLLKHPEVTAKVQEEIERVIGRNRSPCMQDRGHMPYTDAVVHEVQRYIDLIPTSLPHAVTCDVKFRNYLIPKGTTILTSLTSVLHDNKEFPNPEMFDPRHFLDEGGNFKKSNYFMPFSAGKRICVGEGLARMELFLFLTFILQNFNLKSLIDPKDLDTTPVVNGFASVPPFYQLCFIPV
UniProt P10635, sequence (P10635 whole entry, looked up): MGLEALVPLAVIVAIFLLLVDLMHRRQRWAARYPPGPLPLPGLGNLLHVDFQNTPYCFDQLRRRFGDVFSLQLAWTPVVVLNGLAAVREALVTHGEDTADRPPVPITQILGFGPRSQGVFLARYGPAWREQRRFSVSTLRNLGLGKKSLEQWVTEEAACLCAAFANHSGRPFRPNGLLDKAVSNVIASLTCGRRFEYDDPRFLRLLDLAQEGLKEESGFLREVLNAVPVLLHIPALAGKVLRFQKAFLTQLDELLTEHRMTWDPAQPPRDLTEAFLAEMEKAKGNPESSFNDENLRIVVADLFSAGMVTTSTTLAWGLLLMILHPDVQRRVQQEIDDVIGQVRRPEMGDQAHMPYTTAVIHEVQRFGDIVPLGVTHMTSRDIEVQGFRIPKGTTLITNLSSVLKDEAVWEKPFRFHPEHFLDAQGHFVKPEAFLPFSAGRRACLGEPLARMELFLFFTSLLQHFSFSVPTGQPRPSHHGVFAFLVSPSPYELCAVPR

CC1=C(C(=O)OC(C)C)C(c2cccc([N+](=O)[O-])c2)C(C(=O)OC2CN(C(c3ccccc3)c3ccccc3)C2)=C(N)N1 (stereo not given)
Potency [1]: inconclusive: 33.5 µM [activator, single point] | Potency [2]: inconclusive: 33.5 µM [activator] | Potency [3]: inconclusive: 15.5 µM [inhibitor, partial curve]

N#CSCSc1nc2ccccc2s1
Potency [1]: inconclusive: 68.6 µM [activator, single point] | Potency [2]: active: 6.86 µM | Potency [4]: inconclusive: 61.1 µM [cytotoxic, partial curve]

CCCCCCC(C)OC(=O)COc1nc(F)c(Cl)c(N)c1Cl (stereo not given)
Potency [1]: inconclusive: 68.6 µM [activator] | Potency [3]: inconclusive: 63.3 µM [inhibitor, partial curve]

CCCCCCCCCCCCCCCC[N+](C)(C)Cc1ccccc1
Potency [1]: inconclusive: 62.2 µM [activator] | Potency [2]: inconclusive: 79.4 µM [activator, single point] | Potency [4]: inconclusive: 79.4 µM [cytotoxic, single point] and active: 62.2 µM and inconclusive: 29.8 µM [cytotoxic]

CSc1ccc2c(c1)C(N1CCN(C)CC1)Cc1ccccc1S2 (stereo not given)
Potency [1]: inconclusive: 33.5 µM [activator, single point] | Potency [4]: inconclusive: 33.5 µM [cytotoxic, single point] | Potency [5]: inconclusive: 15.8 µM [activator, partial curve, poor fit]

CCc1cc(SCc2sc(-c3ccc(C(F)(F)F)cc3)nc2CN2CCN(c3ccc(OC)cc3)CC2)ccc1OCC(=O)O
Potency [1]: inconclusive: 68.6 µM [activator, single point] | Potency [2]: inconclusive: 54.5 µM [activator, partial curve] | Potency [4]: active: 24.3 µM | Potency [6]: inconclusive: 71 µM [inhibitor, single point]

CCCCCCCCCCCCCCCCCC[N+](C)(C)Cc1ccccc1
Potency [1]: inconclusive: 69.2 µM [activator, single point] | Potency [4]: active: 55 µM

CC(=O)OC/C=C(C)/C=C/C=C(C)/C=C/C1=C(C)CCCC1(C)C
Potency [1]: inactive | Potency [2]: inconclusive: 66.9 µM [activator, single point] | Potency [4]: inconclusive: 66.9 µM [cytotoxic] and inconclusive: 48.6 µM [cytotoxic, partial curve] and inactive | Potency [3]: inconclusive: 56.4 µM [inhibitor, partial curve] | Potency [6]: inconclusive: 43.6 µM [inhibitor, single point]

CCCCC(CC)COC(=O)c1ccc(O)cc1 (stereo not given)
Potency [1]: inconclusive: 68.6 µM [activator, single point] | Potency [2]: inconclusive: 61.1 µM [activator, partial curve, poor fit] | Potency [4]: inconclusive: 68.3 µM [cytotoxic, single point] and inconclusive: 48.6 µM [cytotoxic, partial curve]

Cc1cc(Cc2cc(C)cc(C(C)(C)C)c2O)c(O)c(C(C)(C)C)c1
Potency [1]: active: 61.4 µM | Potency [4]: active: 61.4 µM and active: 61.1 µM | Potency [3]: inconclusive: 28.4 µM [inhibitor] and inactive

OCCN1CCN(CC/C=C2/c3ccccc3Sc3ccc(C(F)(F)F)cc32)CC1
Potency [1]: inconclusive: 33.5 µM [activator, single point] | Potency [2]: inconclusive: 33.5 µM [activator, single point] | Potency [4]: active: 33.5 µM | Potency [7]: inconclusive: 35.5 µM [activator, partial curve, poor fit] | Potency [5]: inconclusive: 25.1 µM [activator, partial curve, poor fit] | Potency [6]: active: 34.7 µM

Nc1cc(Cl)c(-c2cc(Cl)c(N)cc2Cl)cc1Cl
Potency [1]: inconclusive: 30.6 µM [activator, partial curve, poor fit] and inconclusive: 54.5 µM [activator, partial curve] | Potency [2]: inconclusive: 54.4 µM [activator, partial curve, poor fit] | Potency [3]: inconclusive: 79.6 µM [inhibitor, single point] and inconclusive: 89.4 µM [inhibitor]
